Test results from paper PMC6796939.
Results are given in words; binding and its absence hold for the method and conditions named. For some of these results: In cells and extracts the contact can be indirect. Some binding calls cover weakened binding; strength is not graded here. Where a sequence is shown, tags or fusion partners need not be part of it. Blank lines part the entries; values can stand above or below the molecule they belong to.

Assays:
GST-C4 (Drosophila) = target: T1, GST-C4 (Drosophila) (UniProt P18502); assay: pull-down; GST pull-down with purified His-PKAc and GST control or GST-tagged Ptc intracellular domains (GST-C1, -C4, -C7); detected by western blot; both purified
T1 sequence: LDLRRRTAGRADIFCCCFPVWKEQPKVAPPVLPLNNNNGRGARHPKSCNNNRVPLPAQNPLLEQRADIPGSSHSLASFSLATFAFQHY

GST-C7 (Drosophila) = target: T2, GST-C7 (Drosophila) (UniProt P18502); assay: as above
T2 sequence: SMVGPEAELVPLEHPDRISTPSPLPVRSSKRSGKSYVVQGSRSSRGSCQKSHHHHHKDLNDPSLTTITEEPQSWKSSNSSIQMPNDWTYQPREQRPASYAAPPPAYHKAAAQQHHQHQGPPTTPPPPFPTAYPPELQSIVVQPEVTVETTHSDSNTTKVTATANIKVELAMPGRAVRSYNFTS

[1] = target: HA tagged PKAc (3XHA-PKAc) (Drosophila) (UniProt P12370); assay: co-IP; S2 cells co-transfected with tagged constructs; lysed in NP-40 buffer (50 mM Tris-Cl pH 8.0, 0.1 M NaCl, 1% NP-40, 10% glycerol, 1.5 mM EDTA) at 4 °C; primary antibody (anti-V5, anti-HA, anti-Flag) 2 h, protein A/G 1 h; western blot; some panels with or without Hh (Hh plasmid and Hh conditioned medium), some with dsRNA against ptc 5'UTR to knock down endogenous Ptc
Myc-SmoWT (Drosophila) = Myc-SmoWT (Drosophila) (UniProt P91682); assay: western blot of dimer and monomer bands; S2 cells transfected with Myc-SmoWT and dsRNA against ptc 5'UTR, with or without Ptc variants; dimer and monomer forms of Myc-SmoWT on western blot

binding (GST-C4 (Drosophila)): binds
binding (GST-C7 (Drosophila)): no binding
Molecule: purified His-tagged PKAc (His-PKAc) (from UniProt P12370 1-353) (enzyme)

binding [1]: binds
B1: V5-tagged Ptc (PtcWT-V5) (receptor, UniProt P18502 1-1286)
chain: MDRDSLPRVPDTHGDVVDEKLFSDLYIRTSWVDAQVALDQIDKGKARGSRTAIYLRSVFQSHLETLGSSVQKHAGKVLFVAILVLSTFCVGLKSAQIHSKVHQLWIQEGGRLEAELAYTQKTIGEDESATHQLLIQTTHDPNASVLHPQALLAHLEVLVKATAVKVHLYDTEWGLRDMCNMPSTPSFEGIYYIEQILRHLIPCSIITPLDCFWEGSQLLGPESAVVIPGLNQRLLWTTLNPASVMQYMKQKMSEEKISFDFETVEQYMKRAAIGSGYMEKPCLNPLNPNCPDTAPNKNSTQPPDVGAILSGGCYGYAAKHMHWPEELIVGGAKRNRSGHLRKAQALQSVVQLMTEKEMYDQWQDNYKVHHLGWTQEKAAEVLNAWQRNFSREVEQLLRKQSRIATNYDIYVFSSAALDDILAKFSHPSALSIVIGVAVTVLYAFCTLLRWRDPVRGQSSVGVAGVLLMCFSTAAGLGLSALLGIVFNAASTQVVPFLALGLGVDHIFMLTAAYAESNRREQTKLILKKVGPSILFSACSTAGSFFAAAFIPVPALKVFCLQAAIVMCSNLAAALLVFPAMISLDLRRRTAGRADIFCCCFPVWKEQPKVAPPVLPLNNNNGRGARHPKSCNNNRVPLPAQNPLLEQRADIPGSSHSLASFSLATFAFQHYTPFLMRSWVKFLTVMGFLAALISSLYASTRLQDGLDIIDLVPKDSNEHKFLDAQTRLFGFYSMYAVTQGNFEYPTQQQLLRDYHDSFVRVPHVIKNDNGGLPDFWLLLFSEWLGNLQKIFDEEYRDGRLTKECWFPNASSDAILAYKLIVQTGHVDNPVDKELVLTNRLVNSDGIINQRAFYNYLSAWATNDVFAYGASQGKLYPEPRQYFHQPNEYDLKIPKSLPLVYAQMPFYLHGLTDTSQIKTLIGHIRDLSVKYEGFGLPNYPSGIPFIFWEQYMTLRSSLAMILACVLLAALVLVSLLLLSVWAAVLVILSVLASLAQIFGAMTLLGIKLSAIPAVILILSVGMMLCFNVLISLGFMTSVGNRQRRVQLSMQMSLGPLVHGMLTSGVAVFMLSTSPFEFVIRHFCWLLLVVLCVGACNSLLVFPILLSMVGPEAELVPLEHPDRISTPSPLPVRSSKRSGKSYVVQGSRSSRGSCQKSHHHHHKDLNDPSLTTITEEPQSWKSSNSSIQMPNDWTYQPREQRPASYAAPPPAYHKAAAQQHHQHQGPPTTPPPPFPTAYPPELQSIVVQPEVTVETTHSDSNTTKVTATANIKVELAMPGRAVRSYNFTS

binding (Myc-SmoWT (Drosophila)): binds
B2: Myc-SmoWT (receptor, UniProt P91682 32-1036)
chain: SSAKFGSTTPASAQQSDVELEPINGTLNYRLYAKKGRDDKPWFDGLDSRHIQCVRRARCYPTSNATNTCFGSKLPYELSSLDLTDFHTEKELNDKLNDYYALKHVPKCWAAIQPFLCAVFKPKCEKINGEDMVYLPSYEMCRITMEPCRILYNTTFFPKFLRCNETLFPTKCTNGARGMKFNGTGQCLSPLVPTDTSASYYPGIEGCGVRCKDPLYTDDEHRQIHKLIGWAGSICLLSNLFVVSTFFIDWKNANKYPAVIVFYINLCFLIACVGWLLQFTSGSREDIVCRKDGTLRHSEPTAGENLSCIVIFVLVYYFLTAGMVWFVFLTYAWHWRAMGHVQDRIDKKGSYFHLVAWSLPLVLTITTMAFSEVDGNSIVGICFVGYINHSMRAGLLLGPLCGVILIGGYFITRGMVMLFGLKHFANDIKSTSASNKIHLIIMRMGVCALLTLVFILVAIACHVTEFRHADEWAQSFRQFIICKISSVFEEKSSCRIENRPSVGVLQLHLLCLFSSGIVMSTWCWTPSSIETWKRYIRKKCGKEVVEEVKMPKHKVIAQTWAKRKDFEDKGRLSITLYNTHTDPVGLNFDVNDLNSSETNDISSTWAAYLPQCVKRRMALTGAATGNSSSHGPRKNSLDSEISVSVRHVSVESRRNSVDSQVSVKIAEMKTKVASRSRGKHGGSSSNRRTQRRRDYIAAATGKSSRRRESSTSVESQVIALKKTTYPNASHKVGVFAHHSSKKQHNYTSSMKRRTANAGLDPSILNEFLQKNGDFIFPFLQNQDMSSSSEEDNSRASQKIQDLNVVVKQQEISEDDHDGIKIEELPNSKQVALENFLKNIKKSNESNSNRHSRNSARSQSKKSQKRHLKNPAADLDFRKDCVKYRSNDSLSCSSEELDVALDVGSLLNSSFSGISMGKPHSRNSKTSCDVGIQANPFELVPSYGEDELQQAMRLLNAASRQRTEAANEDFGGTELQGLLGHSHRHQREPTFMSESDKLKMLLLPSK
